Data reported in patent US20160130315A1 (AJOU UNIVERSITY INDUSTRY ACADEMIC COOPERATION FOUNDATION, published 2016).

T1: b1b2 domains (275-595) of neuropilin-2 (UniProt O60462 275-595)
T1 construct: range 275-595; Purified soluble domain; also called NRP2-b1b2; NRP-2 b1b2
T1 sequence (looked up): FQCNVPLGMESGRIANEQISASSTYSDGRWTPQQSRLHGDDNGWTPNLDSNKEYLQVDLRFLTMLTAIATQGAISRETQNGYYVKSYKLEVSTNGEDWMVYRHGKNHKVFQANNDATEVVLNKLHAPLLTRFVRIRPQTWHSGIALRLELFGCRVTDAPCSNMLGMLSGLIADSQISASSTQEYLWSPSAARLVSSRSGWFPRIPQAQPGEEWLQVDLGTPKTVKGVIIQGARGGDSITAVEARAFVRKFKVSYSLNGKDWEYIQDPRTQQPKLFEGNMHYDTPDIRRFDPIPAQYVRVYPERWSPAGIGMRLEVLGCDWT

B1: Fc-4A22 (Fc fusion, human)
chain: [sequence of human IgG1 Fc not given]GAGAHTPGNSNKWKHLQENKKGRNRR
notes: domain: Fc (hinge-CH2-CH3); Disulfide-linked dimer; Biotinylated in the ELISA; also called 4A22 fused to Fc
B2: Fc-15A22 (Fc fusion, human)
chain: [sequence of human IgG1 Fc not given]GGGGSGGGGSGGGGSHTPGNSNKWKHLQENKKGRNRR
notes: domain: Fc (hinge-CH2-CH3); Disulfide-linked dimer; Biotinylated in the ELISA; also called 15A22 fused to Fc
B3: Fc-4F22 (Fc fusion, human)
chain: [sequence of human IgG1 Fc not given]GAGAREAPGAPRSPEPQDQKKPRNRR
notes: domain: Fc (hinge-CH2-CH3); Disulfide-linked dimer; Biotinylated in the ELISA; also called 4F22 fused to Fc
B4: Fc-15F22 (Fc fusion, human)
chain: [sequence of human IgG1 Fc not given]GGGGSGGGGSGGGGSREAPGAPRSPEPQDQKKPRNRR
notes: domain: Fc (hinge-CH2-CH3); Disulfide-linked dimer; also called 15F22 fused to Fc
B5: Fc-15F22p (Fc fusion, human)
chain: [sequence of human IgG1 Fc not given]GGGGSGGGGSGGGGSREAPGAPRSPEPQDQKKPRPRR
notes: domain: Fc (hinge-CH2-CH3); Disulfide-linked dimer; Biotinylated in the ELISA; also called Fc-F22p

biological target: T1, b1b2 domains (275-595) of neuropilin-2; assay: SPR Biacore 2000, NRP b1b2 on CM5 chip
Protocol: (§1) Specifically, each b1b2 domain of neuropilin-1 and -2 was diluted with 10 mM Na-acetate buffer (pH 4.0), and fixed onto CM5 sensor chips (GE healthcare, USA) in about 1000 response units (RU). […] After bond and dissociation analysis, the regeneration of CM5 chip was performed by streaming a buffer (20 Mm NaOH, 1 M NaCl, pH 10.0) at a stream velocity 30 μl/min for 1 minute.

Row | Kd [µM] | koff [s⁻¹] | kon [M⁻¹ s⁻¹] | Binder
1 | 20.2 | 0.123 | 6090 | B1
2 | 9.8 | 0.0387 | 3940 | B2
3 | 13 | 0.00157 | 121 | B3
4 | 12.4 | 0.013 | – | B4
5 | 0.0924 | 0.00123 | 13400 | B5

biological target: T2, b1b2 domains (273-586) of neuropilin-1 (UniProt O14786 273-586); assay: SPR Biacore 2000, NRP b1b2 on CM5 chip
T2 construct: range 273-586; Purified soluble domain; No tag described; also called NRP1-b1b2; NRP-1 b1b2
T2 sequence (O14786 273-586 limits assumed, form in doubt): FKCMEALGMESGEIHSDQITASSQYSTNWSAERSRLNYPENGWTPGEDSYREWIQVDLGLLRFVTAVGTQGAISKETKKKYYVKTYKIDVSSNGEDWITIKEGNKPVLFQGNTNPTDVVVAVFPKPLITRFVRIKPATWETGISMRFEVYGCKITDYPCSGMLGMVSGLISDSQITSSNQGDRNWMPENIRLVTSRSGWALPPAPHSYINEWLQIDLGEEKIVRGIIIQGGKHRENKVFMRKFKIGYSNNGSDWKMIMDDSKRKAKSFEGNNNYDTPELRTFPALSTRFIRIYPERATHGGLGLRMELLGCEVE
Protocol: as §1

Row | Kd [µM] | koff [s⁻¹] | kon [M⁻¹ s⁻¹] | Binder
6 | 18 | 0.0193 | – | B1
7 | 6.06 | 0.0295 | 4860 | B2
8 | 10.3 | 0.00225 | 218 | B3
9 | 39.7 | 0.0534 | 1350 | B4
10 | 0.0797 | 0.00138 | 17300 | B5
